In publication PMC12040169 (PLOS Biology, 2025):
Some of the results follow.

system: T1, C. trachomatis L2/434/Bu expressing GFP (CTL2-GFP); parameters: species or system HeLa; C. trachomatis total inclusion area by high-content imaging, normalised to DMSO; settings: total inclusion area; 28.5 h, 10 µM; inhibitor
T1 construct: L2/434/Bu GFP intracellular growth in HeLa cells
Procedure, shortened: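 Following bulk GFP and resorufin fluorescence reads, infected cells were fixed, Hoechst-stained and imaged on a high-content platform. Inclusion total area and number per well served as growth proxies; nuclei counts indicated host viability. MICs were derived as for the fluorescence assay.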

With `O=C1NC[C@@H](CCC(=O)N2CCCC2)N2C[C@@H](NC(=S)Nc3ccccc3)C[C@@H]12` [CBK289004] as the compound, how does the “% of control remaining” value read?
The value was 102.589.

How did the “% of control remaining” value turn out when `Cc1ccc(C)c2c1c1nc3ccccc3nc1n2Cc1nnc(-c2ccccc2)o1` [CBK268677] was run?
Its value is 123.231.

With `Cc1ccccc1NC(=O)c1ccc(Br)o1` [CBK107152] as the compound, how does the “% of control remaining” value read?
Its value is 25.6727.

How did the “% of control remaining” value turn out when `COc1nccnc1-c1ccc(Cl)c(Cl)c1` [CBK107110] was run?
Its value is 100.52.

With `C=CCn1c(Cc2csc(NC(=O)Cc3cc(OC)c(OC)c(OC)c3)n2)n[nH]c1=S` [CBK295311] as the compound, how does the “% of control remaining” value read?
The value was 94.3081.

With `Cc1nc(C(Cc2ccsc2)NC(=O)c2ccnn2C)sc1C` (stereo not drawn) [CBK284778] as the compound, how does the “% of control remaining” value read?
The value was 91.8996.

For `Cc1cc(C)c2c(C(C)(C)C)nn(-c3ccc(C(=O)O)cc3)c2n1` [CBK267481], which “% of control remaining” value is on record?
Its value is 114.377.

For `COC(=O)c1cc(Br)ccc1NC(=O)COc1ccccc1C` [CBK263715], which “% of control remaining” value is on record?
The value was 105.441.

Which “% of control remaining” value does the source give for `CC(C)[C@H](CO)Nc1nc(-c2ccccc2)cnc1N` [CBK063933] here?
Its value is 84.1752.

Which “% of control remaining” value does the source give for `CCN(CC)CCN(C)Cc1ccccc1Br` [CBK026593] here?
The value was 100.701.

For `O=C(CN1C(=O)[C@@H]2CCCN2c2ncccc21)NC1CCCCC1` [CBK286204], which “% of control remaining” value is on record?
The value was 106.302.

For `Nc1ncc(-c2cccc(/C=C/C(=O)O)c2)nc1N1CCN(CCO)CC1` [CBK063665], which “% of control remaining” value is on record?
Its value is 129.584.

`Cc1c(S(=O)(=O)Nc2ccc3cn[nH]c3c2)cnn1-c1ccccc1` [CBK067149] was tested. Which “% of control remaining” value did it give?
The value was 111.133.

For `O=C(NCCc1nc2ccccc2[nH]1)c1cccs1` [CBK020529], which “% of control remaining” value is on record?
Its value is 45.9493.

Which “% of control remaining” value does the source give for `COc1ccccc1NC(=N)Nc1nc(CSc2nc3ccccc3s2)cc(=O)[nH]1` [CBK269046] here?
The value was 95.4236.

For `Cc1c(C#N)c(=O)oc2ccccc12` [CBK007705], which “% of control remaining” value is on record?
Its value is 102.626.

With `CCN(CC)CCNc1nc(-c2cccc(Cl)c2)nc2ccccc12` [CBK267265C] as the compound, how does the “% of control remaining” value read?
Its value is 40.0935.

How did the “% of control remaining” value turn out when `CCC(COC)NS(=O)(=O)c1ccc(C(C)C)cc1` (stereo not drawn) [CBK044587] was run?
Its value is 97.6496.

For `CC(=O)NC1(c2ccc(F)cc2)CCN(C(=O)C2CCC2)CC1` [CBK283492], which “% of control remaining” value is on record?
Its value is 71.8569.

How did the “% of control remaining” value turn out when `COc1ccc(NC(=O)C2C3CCC(C3)C2C(=O)O)cc1OC` (stereo not drawn) [CBK263684] was run?
Its value is 106.135.

`COc1ccc(CCNC(=O)c2ncoc2-c2cccs2)cc1` [CBK283663] was tested. Which “% of control remaining” value did it give?
The value was 42.0345.

`CS(=O)(=O)N(CC(=O)N/N=C/c1ccncc1)c1ccccc1Br` [CBK263911] was tested. Which “% of control remaining” value did it give?
Its value is 107.714.

For `CCc1nc(C2CCCN2c2ncc(C#N)cc2Cl)no1` (stereo not drawn) [CBK305183], which “% of control remaining” value is on record?
The value was 28.6889.

How did the “% of control remaining” value turn out when `CNCCOc1ncccc1OCc1ccccc1` [CBK036306] was run?
The value was 92.6905.

With `COC(=O)c1cc(-c2ccccc2OCc2ccccc2)ccc1NC(=O)c1ccc(Cl)cc1Cl` [CBK000415] as the compound, how does the “% of control remaining” value read?
The value was 132.448.

With `O=C(NCc1cccs1)c1cc(S(=O)(=O)N2CCOCC2)c(Cl)cc1Cl` [CBK269657] as the compound, how does the “% of control remaining” value read?
Its value is 75.2577.

How did the “% of control remaining” value turn out when `Cc1ccc(C(=O)C2=C(O)C(=O)N(CCN(C)C)C2c2ccccn2)o1` (stereo not drawn) [CBK266536] was run?
The value was 117.726.

`COc1ccc2cc(C(=O)N(CCO)Cc3ccc(C)s3)n(C)c2c1` [CBK306831] was tested. Which “% of control remaining” value did it give?
Its value is 58.5002.

For `Cc1cc(C)c2c(CC(=O)NCCCN3CCOCC3)coc2c1` [CBK268307], which “% of control remaining” value is on record?
Its value is 91.6358.

Which “% of control remaining” value does the source give for `O=C(/C=C/c1cn(C2CC(O)C(CO)O2)c(=O)[nH]c1=O)NCCNC(=O)C(F)(F)F` (stereo not drawn) [CBK201214] here?
Its value is 122.685.

`CCN(CC)CCCOC(=O)C(CCSC)c1ccccc1C` (stereo not drawn) [CBK023177C] was tested. Which “% of control remaining” value did it give?
The value was 32.5014.

With `Cc1nc(CC(=O)O)c(-c2ccccc2)s1` [CBK264988] as the compound, how does the “% of control remaining” value read?
Its value is 100.373.

Which “% of control remaining” value does the source give for `Cc1ccsc1CCNC(=O)C1(Oc2cccnc2C)CCNCC1` [CBK307374] here?
Its value is 83.4471.

With `FC(F)(F)c1ccc(-c2nnc(C3CC3)o2)cc1` [CBK021992] as the compound, how does the “% of control remaining” value read?
Its value is 51.8382.

For `Cc1cc(C)n(CC2CCCCN2CC(=O)NC(C)c2ccco2)n1` (stereo not drawn) [CBK305331], which “% of control remaining” value is on record?
Its value is 96.8886.

With `O=C(O)CCSc1nnnn1-c1ccccc1` [CBK287217] as the compound, how does the “% of control remaining” value read?
Its value is 118.751.

For `O=C(COc1ccc(CCO)cc1)Nc1ccccc1-c1ccccc1` [CBK269666], which “% of control remaining” value is on record?
The value was 79.1274.

`CC(Cc1nc(-c2cnnn2C)cs1)n1cc(Cl)cn1` (stereo not drawn) [CBK304245] was tested. Which “% of control remaining” value did it give?
Its value is 52.6535.

With `CC(Cc1nc(-c2nccn2C(C)C)cs1)n1cc(Cl)cn1` (stereo not drawn) [CBK304251] as the compound, how does the “% of control remaining” value read?
Its value is 13.1385.

With `COc1ccccc1OCCSc1nnnn1C1CCCCC1` [CBK141884] as the compound, how does the “% of control remaining” value read?
Its value is 73.0844.

For `Cc1cc2ccccc2c(=O)n1CCO` [CBK015621], which “% of control remaining” value is on record?
The value was 51.1503.

How did the “% of control remaining” value turn out when `COc1cccc(C(=O)NC(c2ccc([N+](=O)[O-])cc2)c2c(O)ccc3ccccc23)c1` (stereo not drawn) [CBK263971] was run?
The value was 103.747.

`Cc1ccc(CSCCNS(=O)(=O)c2ccsc2C(=O)O)cc1` [CBK296727] was tested. Which “% of control remaining” value did it give?
The value was 82.1248.

`COc1ccc(-c2ccc(OC)cc2C(=O)Nc2ccc3c(c2)OCC(=O)N3)cc1` [CBK285821] was tested. Which “% of control remaining” value did it give?
Its value is 99.9715.

Which “% of control remaining” value does the source give for `O=C(O)C1CCCCC1C(=O)NCc1cccnc1` (stereo not drawn) [CBK261695] here?
The value was 88.7623.

How did the “% of control remaining” value turn out when `Cn1c(=O)c2c(nc(NCCCO)n2C/C=C/c2ccccc2)n(C)c1=O` [CBK268940] was run?
Its value is 72.7779.

For `COc1cc2c(cc1CNC(=O)c1cn(CCN)nn1)CCC2` [CBK306886], which “% of control remaining” value is on record?
The value was 17.2405.

Which “% of control remaining” value does the source give for `Cn1c(-c2ccc(C(=O)O)cc2)cc2oc(-c3ccccc3)nc2c1=O` [CBK074957] here?
Its value is 88.876.

How did the “% of control remaining” value turn out when `NC(=O)c1ccc(NC(=O)c2sc3ccccc3c2Cl)cc1` [CBK262643] was run?
The value was 96.8952.

For `Cc1ccc(Cl)cc1NC(=O)c1cc(NC(=O)C2C3C=CC(C3)C2C(=O)O)ccc1N1CCCCC1` (stereo not drawn) [CBK268194], which “% of control remaining” value is on record?
Its value is 94.6589.

`Cc1cc(C(=O)NCCO)ccc1Br` [CBK175092] was tested. Which “% of control remaining” value did it give?
The value was 114.141.

`CCc1csc(C2CN3CCCC3CO2)n1` (stereo not drawn) [CBK304793] was tested. Which “% of control remaining” value did it give?
The value was 55.9829.

With `CCN(CC)C(=O)C1CCCN(C(=O)Nc2cccc(OC)c2)C1` (stereo not drawn) [CBK005159] as the compound, how does the “% of control remaining” value read?
The value was 105.7.

Which “% of control remaining” value does the source give for `Cc1ccc(Oc2ccc(C(=O)NCC(=O)O)cc2)cc1C` [CBK286570] here?
The value was 92.4114.
